Source: PMC6919601, “Identification of Plasmodium dipeptidyl aminopeptidase allosteric inhibitors by high throughput screening” (PLoS ONE, 2019)
The campaign covered roughly 110,000 compounds. About 230 (0.21%) showed an effect of 50% or more. Some of the results follow.

Target: DPAP1 (Plasmodium falciparum, UniProt Q8IIJ9)
Assay: primary screen, percent inhibition; read by cleavage of a fluorogenic dipeptide substrate; higher = more effect of the substance
Parameters: species or system P. falciparum D10 trophozoite lysates; single well
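Note: 30 min substrate incubation versus DMSO and 10 µM JCP410 controls.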

DPAP1, sequence (Q8IIJ9 whole entry, looked up): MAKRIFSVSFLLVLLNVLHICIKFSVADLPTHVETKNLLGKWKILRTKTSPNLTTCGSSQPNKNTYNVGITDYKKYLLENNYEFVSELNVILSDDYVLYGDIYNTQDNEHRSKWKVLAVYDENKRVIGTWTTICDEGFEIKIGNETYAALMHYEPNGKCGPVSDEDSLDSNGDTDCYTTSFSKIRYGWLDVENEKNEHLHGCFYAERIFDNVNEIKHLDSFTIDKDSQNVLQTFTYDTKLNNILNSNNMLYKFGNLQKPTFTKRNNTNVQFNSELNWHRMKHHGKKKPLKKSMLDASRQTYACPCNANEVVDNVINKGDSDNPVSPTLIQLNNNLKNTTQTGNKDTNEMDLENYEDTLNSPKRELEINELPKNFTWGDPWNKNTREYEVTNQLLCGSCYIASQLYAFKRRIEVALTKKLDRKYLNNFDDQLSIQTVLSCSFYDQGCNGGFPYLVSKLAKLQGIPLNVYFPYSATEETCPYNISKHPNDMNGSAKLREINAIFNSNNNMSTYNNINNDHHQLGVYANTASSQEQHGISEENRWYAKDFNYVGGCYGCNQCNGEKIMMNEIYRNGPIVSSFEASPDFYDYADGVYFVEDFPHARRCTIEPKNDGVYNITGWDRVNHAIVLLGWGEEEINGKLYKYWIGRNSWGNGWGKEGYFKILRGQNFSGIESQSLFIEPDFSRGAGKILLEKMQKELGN

Structure (SMILES) | % Inhibition @ 10 uM
CCN(CC)C(=O)C1CCCN(Cc2ccc(O)cc2)C1 (stereo not drawn) | 4.66%
CCS(=O)(=O)N1CCC(C(=O)N2CCc3ccccc3C2)CC1 | 2.18%
NS(=O)(=O)c1ccc(NC(=O)CNS(=O)(=O)c2cc(Cl)ccc2Cl)cc1 | -0.473%
OCC1CCCN(Cc2ccc(Br)cc2)C1 (stereo not drawn) | 2.46%
COc1ccc(-c2cc(C(F)(F)F)c3c(N)c(C(=O)NC4CC4)sc3n2)cc1OC | 24.4%
CC(C)C[C@H](NC(=O)OCc1ccccc1)C(=O)N[C@@H](CC(C)C)C(=O)c1nc2ccccc2o1 | -3.04%
Cc1ccc2c(c1)-c1cc(C)nn1C(c1ccc3c(c1)OCO3)N2 (stereo not drawn) | 2.49%
CCCCOc1ccc(C2c3c(oc4ccccc4c3=O)C(=O)N2c2nncs2)cc1 (stereo not drawn) | 0.415%
O=[N+]([O-])c1cc(C(F)(F)F)ccc1-n1ccnc1 | 3.25%
COc1ccc(CNc2nc3c(S(=O)(=O)c4ccc(C)c(C)c4)nnn3c3ccsc23)cc1 | -4.34%
CCOC(=O)N1CCN(Cc2nc3c(c(=O)[nH]c(=O)n3C)n2CCN2CCOCC2)CC1 | 3.59%
O=C(c1ccc(N2C(=O)CCC2=O)cc1)N1CCCCCC1 | -0.891%
Cc1[nH]cnc1CSCCCCCc1ccccc1 | -4.12%
Cc1ccc(C=C2C(=O)OC(C)(C(C)(C)C)OC2=O)cc1 (stereo not drawn) | -9.24%
CC1(C)OC(=O)C(/C=N/C(Cc2c[nH]c3ccccc23)C(=O)O)=C(O)O1 (stereo not drawn) | 3.66%
Fc1ccccc1N1CCN(Cc2c(F)cccc2F)CC1 | -0.446%
O=C(O)CSc1cccc2cccnc12 | 1.96%
Cc1cccn2c(=O)c3cc(C(=O)NCc4ccccc4)n(C)c3nc12 | 1.08%
O=C(NCc1cccnc1)c1ccc(F)cc1 | 1.91%
CCc1cc2c(s1)SC(c1ccc([N+](=O)[O-])cc1)NC2=O (stereo not drawn) | -2.51%
CCOc1cc(C)c(S(=O)(=O)Nc2ccccn2)cc1C | 4.94%
N#CCc1ccc(NC(=O)Cc2ccccc2)cc1 | 3.21%
CS(=O)(=O)C1=NSC2=NC(=O)/C(=C\c3ccc(O)cc3)C(=N)N21 | -1.58%
COc1cccc(CNCc2ccc(Br)cc2)c1OC | -2.22%
COc1cnn(-c2ccccc2)c(=O)c1O | 2.22%

Structure (SMILES) | % Inhibition @ 10 uM
O=C(c1nc2ccccc2o1)C(CCc1ccccc1)NC(=O)C(CC1CCCCC1)C(=O)NCc1ccccc1 (stereo not drawn) | -0.214%
Fc1ccc2c(c1)C1C=CCC1C(c1ccncc1)N2 (stereo not drawn) | -1.37%
N#C/C(=C\Nc1ccccc1-c1ccccc1)C(=O)NC(=O)Cc1ccccc1 | -2.45%
Cc1ccc(C(=O)Nc2c(C)cccc2C)s1 | -2.19%
COc1ccc(OCCCCCCS)cc1 | 3.83%
CCOc1ccc(/C=C2\CC/C(=C\C(C)C)C2=O)cc1 | 8.24%
O=C(Nc1ccc([N+](=O)[O-])cc1)c1cccc(S(=O)(=O)N2CCCCC2)c1 | 6.33%
N#CC1=C(N)OC2=C(C(=O)c3ccccc3C2=O)C1c1cccnc1 (stereo not drawn) | 4.51%
Cc1ccc(NC(=O)c2ccc3nc4ccccc4nc3c2)cc1 | -3.77%
O=c1oc2c3c(c(Cl)cc2c2c1CCC2)OCN(Cc1ccc2c(c1)OCO2)C3 | -4.39%
O=C(Nc1cccnc1)C1CCN(S(=O)(=O)c2cccc3cccnc23)CC1 | -1.76%
Cc1ccc(NC(=O)c2ccc(Cn3cc(Cl)cn3)o2)c(C)c1 | -4.4%
COc1ccc2c(c1)cc1c(=O)n(CC(=O)NCc3cccc(OC)c3OC)nc(C)n12 | 99.1%
S=C(Nc1ccccc1)N1CCCN1c1ccccc1 | -0.744%
CC(C)CC(NC(=O)c1cccc(N(C)C)c1)C(=O)NCC#N (stereo not drawn) | -2.35%
Cc1ccc(C2C3=C(CC(c4ccco4)CC3=O)N=C3C2=C(O)c2ccccc23)cc1 (stereo not drawn) | 5.3%
CC1(C)CC(=O)C2=C(C1)c1c(ccc3ccccc13)NC2c1c(F)cccc1Cl (stereo not drawn) | -4.24%
Cc1ccccc1N1C(=O)C(Cl)=C(N(C)c2ccccc2)C1=O | -2.88%
CCN(CC)c1ccc(CN2CCCC(C(N)=O)C2)cc1 (stereo not drawn) | -1.41%
O=C(/C=C\Nc1ccc2c(c1)OCO2)c1ccc2ccccc2c1 | -2.24%
CNC(=O)CNC(=O)C1O[C@@H]2OC(C)(C)O[C@@H]2[C@H]2OC(C)(C)O[C@@H]12 (stereo partly drawn) | 0.273%
Cc1ccc(-n2ncc3c(N(C)C4CCCCC4)ncnc32)c(C)c1 | 9.64%
CN1C(=O)c2ccc(NC(=O)c3ccc(Br)o3)cc2C1=O | 0.389%
O=S(=O)(Nc1cccc(-c2cn3ccsc3n2)c1)c1ccc(Cl)c(Cl)c1 | 3.05%
O=C(Nc1cccc2cccnc12)c1cncc(Br)c1 | 0.161%

Structure (SMILES) | % Inhibition @ 10 uM
CCCc1nnc(NC(=O)Cc2coc3ccc(CC)cc23)s1 | 2.62%
CCCc1cc(O)n2nc(NCc3ccc(OC)cc3)nc2n1 | -9.95%
O=c1ccoc2cc(OCc3ccccc3)ccc12 | 0.323%
CCN1CCCC1CNC(=O)c1cc2c(s1)-c1ccc(Cl)cc1SC2 (stereo not drawn) | -6.33%
CCOC(=O)C1=C(CNCCCOC)NC(=O)NC1c1ccc(C)cc1 (stereo not drawn) | 0.708%
CC(C)C[C@H](NC(=O)c1ccc(N2CCN(C)CC2)cc1)C(=O)NCCCN1CCCC1 | -4.72%
OCC1OC2OC3(CCCCC3)OC2C2OC3(CCCCC3)OC12 (stereo not drawn) | -2.97%
Oc1cc(-c2ccccc2)nc2c(-c3ccc(Cl)cc3)c(Cc3ccccc3)nn12 | 3.32%
CCO/C(O)=C1\C(C)=NC2=C(C(=O)CCC2)C1c1ccco1 (stereo not drawn) | 1.38%
CC1=C(C(=O)Nc2ccccc2F)C(c2ccccn2)C2=C(O)CC(C)(C)CC2=N1 (stereo not drawn) | -2.68%
O=C(c1ccc(CS(=O)Cc2ccc(Cl)cc2)o1)N1CCN(C2CCCCC2)CC1 (stereo not drawn) | 6.15%
Cc1cc(C)c(S(=O)(=O)N2CCN(c3cccc(Cl)c3)CC2)c(C)c1 | 3.47%
COc1ccc2c(CNCCc3cccs3)c(C(=O)O)n(Cc3ccc(C)cc3)c2c1 | -1.53%
Cc1ccc(NC(=O)c2ccccc2Cl)cc1C | 0.526%
Cc1nn(-c2ccc(Cl)cc2)c(O)c1/C=N/c1ccc(S(=O)(=O)N2CCOCC2)cc1 | 4.61%
c1cncc(-c2nc3c4c5c(sc4ncn3n2)CCCC5)c1 | -6.22%
COC(=O)C1=CN(CCc2ccc(F)cc2)C=C(C(=O)OC)C1c1ccsc1 | -1.83%
Oc1ccnc2nc(C(Cl)(Cl)Cl)nc(-c3ccccc3)c12 | -1.82%
C=CCOc1ccc(CNc2cccc(C(=O)O)c2)cc1 | 1.83%
COC(=O)C1=C(C)N(C)C(=O)NC1c1ccc(Cl)cc1 (stereo not drawn) | -1.56%
CCOc1cc2c(cc1OCC)C(c1ccc3c(c1)OCO3)NCC2 (stereo not drawn) | 2.49%
Cc1ccc(N2C(=O)CC(NCc3ccc(Cl)cc3)C2=O)cc1Cl (stereo not drawn) | -5.69%
CC(C)(C)c1ccc(C(=O)N2CCC(C(=O)NC3CC3)CC2)cc1 | 1.52%
COc1cc(C2C=C(c3ccc(Cl)cc3)Nc3nnnn32)ccc1OC(F)F (stereo not drawn) | 3.12%
O=C(NCc1ccc(F)cc1Cl)C1CCN(S(=O)(=O)N2CCC3(CC2)OCCO3)CC1 | -2.99%

Structure (SMILES) | % Inhibition @ 10 uM
O=C(NCCc1ccccc1)N1CCN2CCCCC2C1 (stereo not drawn) | -2.31%
COc1cccc(N(CC(=O)NCc2ccc(Cl)cc2)S(C)(=O)=O)c1 | -1.96%
Cc1ccc(C2=CC(c3ccccc3C)n3nnnc3N2)cc1 (stereo not drawn) | -9.03%
C=CCN(CC=C)S(=O)(=O)c1ccc(C(=O)Nc2sc3c(c2C(=O)OC)CCN(C)C3)cc1 | 6.31%
Clc1ccccc1CN1CCN(Cc2ccco2)CC1 | 3.81%
CCOC(=O)C1=C(CSc2nc(C)cc(C)c2C#N)OC(N)=C(C#N)C1c1ccc(F)cc1 (stereo not drawn) | 1.76%
Cc1nnc(N2CCC(C(=O)N3CCOCC3)CC2)c2nn(-c3ccc(Cl)cc3)c(C)c12 | 4.07%
COC(=O)C1=CN(Cc2ccc(OC)cc2)C=C(C(=O)OC)C1c1ccc(C(F)(F)F)cc1 | -5.03%
COc1ccccc1OCCCCN1CCCCC1 | -9.84%
COc1cc(/C=C(\C#N)c2nc3ccccc3[nH]2)cc(Cl)c1O | -2.89%
CC1(C)CC(c2ccc(Cl)cc2Cl)OC(c2ccccc2)=N1 (stereo not drawn) | 0.962%
Cc1cccc(NS(=O)(=O)c2cccc(C(=O)Nc3ccc([N+](=O)[O-])cc3)c2)c1 | -5.36%
COC(=O)C1=C(C)N(Cc2ccccc2)C(=O)/C1=C\c1c(Cl)cccc1Cl | 3.43%
NC(=O)c1cccc(NC(=O)c2ccc(-c3ccccc3)cc2)c1 | -6.44%
Cc1nc(O)nc(O)c1S(=O)(=O)N1CCC(C(=O)NC(C)c2ccccc2)CC1 (stereo not drawn) | -2.56%
C=CCN1C(=O)S/C(=C/c2ccc(C(F)(F)F)cc2)C1=O | -1.22%
COC(=O)CN(CC(=O)OC)C(=O)c1ccccc1 | 3.25%
CC(=O)Nc1ccc2nc(C)c(C/C=C(/C)Cl)c(O)c2c1 | -4.93%
CC1(C)CC(=O)c2cc(OCC(=O)NCc3ccccc3)ccc2O1 | -1.96%
O=C(O)c1ccc2c(c1)C(=O)N(c1ccccc1)C2=O | -7.9%
Cc1ccc(NS(=O)(=O)c2ccccc2[N+](=O)[O-])cc1 | -2.44%
CS(=O)(=O)N1N=C(c2ccccc2)CC1c1ccccc1F (stereo not drawn) | -1.68%
CCCC(=O)Nc1nn2c(-c3cccs3)nnc2s1 | -0.361%
CO/C(O)=C1\C(C)=NC2=C(C(=O)CCC2)C1c1ccccc1C (stereo not drawn) | 3.65%
